# Measured values from the supplement of paper PMC10037445.
# Values joined by “and” are separate entries in the source; they are usually repeats but may differ in a detail not shown here. Equal entries are not always repeated. Over roughly 2,900 compounds, “IRF Lucia reporter activity, fold change vs agonist alone” has its median near 0.9; the highest 2% begin near 2.8. The list shows a part of the results.
# How the values were obtained:
# RAW-Dual [1] = test: IRF Lucia reporter activity, fold change vs agonist alone; cytotoxicity flag (confluency mask): not cytotoxic; higher = enhanced IRF activity
# Method in brief: (§1)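 RAW-Dual macrophages (50,000 cells/well in DMEM, 384-well plates) received 50 nL of library stock by pin tool, then a PRR agonist 1 h later, and were kept at 37 °C, 5% CO2. After 20 hours, supernatant was read for IRF by QuantiLuc luminescence and for NF-κB by QuantiBlue absorbance at 620 nm. Reporter activity is fold change over agonist-alone wells. Cytotoxic wells had IncuCyte confluency below 70% of agonist controls in both mask sets.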
# RAW-Dual [2] = test: IRF Lucia reporter activity, fold change vs agonist alone; higher = enhanced IRF activity; details: agonist: MPLA (TLR4) […]
# Method in brief: as §1
# RAW-Dual [3] = test: IRF Lucia reporter activity, fold change vs agonist alone; cytotoxicity flag (confluency mask): cytotoxic (confluency <70% of control); higher = enhanced IRF activity
# Method in brief: as §1
# [4] = agonist: 3'3'-cGAMP (STING) 10 ug/mL
# [5] = library stock concentration (final ~1000-fold dilution): 10 mM, cytotoxicity flag (confluency mask): not cytotoxic
# [6] = library stock concentration (final ~1000-fold dilution): 10 mM, cytotoxicity flag (confluency mask): cytotoxic (confluency <70% of control)
# [7] = library stock concentration (final ~1000-fold dilution): 2 mM, cytotoxicity flag (confluency mask): not cytotoxic
structure (smiles),measurement,setting,value
CCN(CC)Cc1ccc2cc(COC(=O)Nc3ccc(C(=O)NO)cc3)ccc2c1.Cl.O (library stock concentration (final ~1000-fold dilution): 10 mM),IRF Lucia reporter activity,RAW-Dual [1]; [4],1.03
same,IRF Lucia reporter activity,RAW-Dual [1]; agonist: LPS (TLR4) 0.1 ug/mL,0.611
CCN(CC)Cc1ccc2cc(COC(=O)Nc3ccc(C(=O)NO)cc3)ccc2c1.Cl.O,IRF Lucia reporter activity,RAW-Dual [2]; [5],1.07
O=C(C(Cc1cccc(C(F)(F)F)c1)NS(=O)(=O)c1cc(F)c2c(c1)CCNC2)N1CCCC1 (configuration not stated) (library stock concentration (final ~1000-fold dilution): 10 mM),IRF Lucia reporter activity,RAW-Dual [1]; [4],0.86
same,IRF Lucia reporter activity,RAW-Dual [1]; agonist: LPS (TLR4) 0.1 ug/mL,1.04
O=C(C(Cc1cccc(C(F)(F)F)c1)NS(=O)(=O)c1cc(F)c2c(c1)CCNC2)N1CCCC1 (configuration not stated),IRF Lucia reporter activity,RAW-Dual [2]; [5],1.12
CNC(=O)C(NC(=O)C(CC(C)C)C(O)C(=O)NO)C(C)(C)C (configuration not stated) (library stock concentration (final ~1000-fold dilution): 10 mM),IRF Lucia reporter activity,RAW-Dual [1]; [4],0.695
same,IRF Lucia reporter activity,RAW-Dual [1]; agonist: LPS (TLR4) 0.1 ug/mL,0.911
CNC(=O)C(NC(=O)C(CC(C)C)C(O)C(=O)NO)C(C)(C)C (configuration not stated),IRF Lucia reporter activity,RAW-Dual [2]; [5],0.948
C=CCSCC=C,IRF Lucia reporter activity,RAW-Dual [2]; [5],1.05
C=CCSCC=C (library stock concentration (final ~1000-fold dilution): 10 mM),IRF Lucia reporter activity,RAW-Dual [1]; [4],1.01
same,IRF Lucia reporter activity,RAW-Dual [1]; agonist: LPS (TLR4) 0.1 ug/mL,1.39
CCN1CC(CCN2CCOCC2)C(c2ccccc2)(c2ccccc2)C1=O.Cl.O (configuration not stated) (library stock concentration (final ~1000-fold dilution): 10 mM),IRF Lucia reporter activity,RAW-Dual [1]; [4],1.09
same,IRF Lucia reporter activity,RAW-Dual [1]; agonist: LPS (TLR4) 0.1 ug/mL,1.45
CCN1CC(CCN2CCOCC2)C(c2ccccc2)(c2ccccc2)C1=O.Cl.O (configuration not stated),IRF Lucia reporter activity,RAW-Dual [2]; [5],1.11
CC(NC(=O)Cc1cc(F)cc(F)c1)C(=O)NC1C(=O)N(C)c2ccccc2-c2ccccc21 (configuration not stated) (library stock concentration (final ~1000-fold dilution): 10 mM),IRF Lucia reporter activity,RAW-Dual [1]; [4],0.663
same,IRF Lucia reporter activity,RAW-Dual [1]; agonist: LPS (TLR4) 0.1 ug/mL,1.05
CC(NC(=O)Cc1cc(F)cc(F)c1)C(=O)NC1C(=O)N(C)c2ccccc2-c2ccccc21 (configuration not stated),IRF Lucia reporter activity,RAW-Dual [2]; [5],1.2
C=CCNC1=C2CC(C)CC(OC)C(O)C(C)/C=C(\C)C(OC(N)=O)C(OC)/C=C\C=C(/C)C(=O)NC(=CC1=O)C2=O (configuration not stated),IRF Lucia reporter activity,RAW-Dual [2]; [6],2.09
C=CCNC1=C2CC(C)CC(OC)C(O)C(C)/C=C(\C)C(OC(N)=O)C(OC)/C=C\C=C(/C)C(=O)NC(=CC1=O)C2=O (configuration not stated) (library stock concentration (final ~1000-fold dilution): 10 mM),IRF Lucia reporter activity,RAW-Dual [3]; [4],0.888
same,IRF Lucia reporter activity,RAW-Dual [3]; agonist: LPS (TLR4) 0.1 ug/mL,2.19
C1CCN2CC3CC(CN4CCCCC34)C2C1.O.O.O.O.O.O=S(=O)(O)O (configuration not stated),IRF Lucia reporter activity,RAW-Dual [2]; [5],0.949
C1CCN2CC3CC(CN4CCCCC34)C2C1.O.O.O.O.O.O=S(=O)(O)O (configuration not stated) (library stock concentration (final ~1000-fold dilution): 10 mM),IRF Lucia reporter activity,RAW-Dual [1]; [4],0.932
same,IRF Lucia reporter activity,RAW-Dual [1]; agonist: LPS (TLR4) 0.1 ug/mL,0.909
CCC(C)n1ncn(-c2ccc(N3CCN(c4ccc(OCC5COC(Cn6cncn6)(c6ccc(Cl)cc6Cl)O5)cc4)CC3)cc2)c1=O (configuration not stated) (library stock concentration (final ~1000-fold dilution): 2 mM),IRF Lucia reporter activity,RAW-Dual [1]; [4],0.82
same,IRF Lucia reporter activity,RAW-Dual [1]; agonist: LPS (TLR4) 0.1 ug/mL,1.91
CCC(C)n1ncn(-c2ccc(N3CCN(c4ccc(OCC5COC(Cn6cncn6)(c6ccc(Cl)cc6Cl)O5)cc4)CC3)cc2)c1=O (configuration not stated),IRF Lucia reporter activity,RAW-Dual [2]; [7],1.6
Cc1cccc(Nc2ccccc2C(=O)O)c1C,IRF Lucia reporter activity,RAW-Dual [2]; [5],1.1
Cc1cccc(Nc2ccccc2C(=O)O)c1C (library stock concentration (final ~1000-fold dilution): 10 mM),IRF Lucia reporter activity,RAW-Dual [1]; [4],1.06
same,IRF Lucia reporter activity,RAW-Dual [1]; agonist: LPS (TLR4) 0.1 ug/mL,1.1
O=C(Nc1cc(C(F)(F)F)ccc1N1CCN(Cc2ccccn2)CC1)c1ccc(-c2ccncc2)o1 (library stock concentration (final ~1000-fold dilution): 10 mM),IRF Lucia reporter activity,RAW-Dual [1]; [4],0.738
same,IRF Lucia reporter activity,RAW-Dual [1]; agonist: LPS (TLR4) 0.1 ug/mL,0.897
COc1c(O)cc2oc3cc(O)c(CC=C(C)C)c(O)c3c(=O)c2c1CC=C(C)C (library stock concentration (final ~1000-fold dilution): 10 mM),IRF Lucia reporter activity,RAW-Dual [1]; [4],0.728
same,IRF Lucia reporter activity,RAW-Dual [1]; agonist: LPS (TLR4) 0.1 ug/mL,0.723
CCCCc1nc(Cl)c(CO)n1Cc1ccc(-c2ccccc2-c2nnn[nH]2)cc1 (library stock concentration (final ~1000-fold dilution): 10 mM),IRF Lucia reporter activity,RAW-Dual [1]; [4],1.03 and 1.11
same,IRF Lucia reporter activity,RAW-Dual [1]; agonist: LPS (TLR4) 0.1 ug/mL,1.32 and 1.15
Cc1nc2n(c(=O)c1CCN1CCC(c3noc4cc(F)ccc34)CC1)CCCC2O (configuration not stated),IRF Lucia reporter activity,RAW-Dual [2]; [7],1.21
Cc1nc2n(c(=O)c1CCN1CCC(c3noc4cc(F)ccc34)CC1)CCCC2O (configuration not stated) (library stock concentration (final ~1000-fold dilution): 2 mM),IRF Lucia reporter activity,RAW-Dual [1]; [4],0.941
same,IRF Lucia reporter activity,RAW-Dual [1]; agonist: LPS (TLR4) 0.1 ug/mL,1.03
C=CCn1c(=O)c2cnc(Nc3ccc(N4CCN(C)CC4)cc3)nc2n1-c1cccc(C(C)(C)O)n1 (library stock concentration (final ~1000-fold dilution): 10 mM),IRF Lucia reporter activity,RAW-Dual [3]; [4],0.0179
same,IRF Lucia reporter activity,RAW-Dual [3]; agonist: LPS (TLR4) 0.1 ug/mL,0.0367
C=CCn1c(=O)c2cnc(Nc3ccc(N4CCN(C)CC4)cc3)nc2n1-c1cccc(C(C)(C)O)n1,IRF Lucia reporter activity,RAW-Dual [2]; [6],0.0289
Cc1nc(-c2nc(-c3ccc(OC(F)(F)F)cc3)no2)nn1Cc1cccc(N2CCC(S(C)(=O)=O)CC2)c1 (library stock concentration (final ~1000-fold dilution): 10 mM),IRF Lucia reporter activity,RAW-Dual [1]; [4],0.936
same,IRF Lucia reporter activity,RAW-Dual [1]; agonist: LPS (TLR4) 0.1 ug/mL,0.78
c1cn2cc(-c3ccc4cn[nH]c4c3)nc(Nc3ccc(N4CCOCC4)cc3)c2n1 (library stock concentration (final ~1000-fold dilution): 10 mM),IRF Lucia reporter activity,RAW-Dual [1]; [4],0.179
same,IRF Lucia reporter activity,RAW-Dual [1]; agonist: LPS (TLR4) 0.1 ug/mL,0.714
c1cn2cc(-c3ccc4cn[nH]c4c3)nc(Nc3ccc(N4CCOCC4)cc3)c2n1,IRF Lucia reporter activity,RAW-Dual [2]; [5],0.88
CCC(NC(=O)C(C)NC)C(=O)N1CC(O)CC1Cc1c(-c2[nH]c3cc(F)ccc3c2CC2CC(O)CN2C(=O)C(CC)NC(=O)C(C)NC)[nH]c2cc(F)ccc12 (configuration not stated) (library stock concentration (final ~1000-fold dilution): 10 mM),IRF Lucia reporter activity,RAW-Dual [1]; [4],0.626
same,IRF Lucia reporter activity,RAW-Dual [1]; agonist: LPS (TLR4) 0.1 ug/mL,0.632
CCC(NC(=O)C(C)NC)C(=O)N1CC(O)CC1Cc1c(-c2[nH]c3cc(F)ccc3c2CC2CC(O)CN2C(=O)C(CC)NC(=O)C(C)NC)[nH]c2cc(F)ccc12 (configuration not stated),IRF Lucia reporter activity,RAW-Dual [2]; [5],0.519
NC1CCCN(c2c(Br)cnc3[nH]cc(NC(=O)C4CC4)c23)C1 (configuration not stated) (library stock concentration (final ~1000-fold dilution): 10 mM),IRF Lucia reporter activity,RAW-Dual [3]; [4],0.494
same,IRF Lucia reporter activity,RAW-Dual [3]; agonist: LPS (TLR4) 0.1 ug/mL,0.742
